The values below come from PubChem BioAssay AID2202238 (Ras Initiative Chemistry Research Team, Frederick National …, 2025).

Among all 2,200 compounds or so, fewer than 10 were called active. Some of the results follow. The source made no clear call on entries shown without one.

The test deals with GTPase KRas (Homo sapiens) (UniProt P01116). Description: Covalent labelling of cysteine mutants by fragments, read by mass spectrometry (AID 2202238). Also noted: protein at 5 µM with 500 µM competing thiol for 1.5 h. The note with it: KRAS G12D cysteine mutants, disulfide tethering, MALDI-TOF labeling; stronger effect = higher value; H27C mutant labeling; fragment at 500 µM.
Chain of UniProt P01116 (P01116 whole entry, looked up, the tested form may be a part): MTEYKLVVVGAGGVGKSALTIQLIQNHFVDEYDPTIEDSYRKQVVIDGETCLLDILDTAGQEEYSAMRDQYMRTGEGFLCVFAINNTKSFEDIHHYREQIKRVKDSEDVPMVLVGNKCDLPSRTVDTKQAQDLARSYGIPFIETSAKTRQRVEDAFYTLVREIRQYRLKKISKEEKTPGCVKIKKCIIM
With `N#Cc1cccnc1N1CCCN(C(=O)CCS)CC1`, the percent labeling came out at 44.2%.
The result for `O=C(CC(c1ccccc1)c1ncc[nH]1)NCCS` (stereo unspecified) reads 31%; that for `O=C(NCCS)C1CC1c1c(F)cccc1F` (stereo unspecified), 26.7%; that for `Cc1ccc(-c2ccncc2)cc1NC(=O)CCS`, 41.4%.
Then `O=C(CCS)NC1CC(c2ccccc2F)C1` (stereo unspecified), with 45.3%; and `O=C(CCNC(=O)NC1CCCCC1)NCCS`, with 29.1%; and `Cc1noc(C)c1CN(C(=O)CCS)C1CC1`, with 40.6%.
Then `Cc1c(C(=O)NCCS)cccc1-c1ccccn1`, with 38.8%.
With `Cc1[nH]c(=O)c(C#N)c(C)c1CCC(=O)NCCS`, the percent labeling was determined as 33.8%.
Then `O=C(NCCS)c1c(F)ccc(C(F)(F)F)c1F`, with 31.6%; and `CC1(C)CN(C(=O)CCS)Cc2ccccc2O1`, with 44.4%; and `CC(=O)NC(Cc1c[nH]c2cc(F)ccc12)C(=O)NCCS` (stereo unspecified), with 35.1%.
Regarding `Cn1cc(-c2ncccc2C(=O)NCCS)cn1`, the percent labeling is 30.9%.
The result for `Cc1c(CC(=O)NCCS)nnn1-c1ccccc1` reads 39%; that for `O=C(NCCS)c1cn(-c2ccc(Br)cc2)cn1`, 22.1%.
Regarding `O=C(CCS)Nc1ccc(N2CCOCC2)cc1Cl`, the percent labeling worked out at 40.2%.
Then `Cc1cc(C)c(C(=O)NCCS)c(C)c1Br`, with 36.8%; and `CC(C)N(C)c1ccc(C(=O)NCCS)cc1`, with 26%; and `Cn1cc(C(=O)NCCS)c(-c2cccnc2)n1`, with 24.9%.
Then `Cc1nc(CCC(=O)NCCS)oc1-c1ccccc1`, with 27.9%.
The result for `O=C(NCCS)C1CCN(C(=O)c2ccc3ccccc3c2)CC1` reads 24.3%; that for `O=C(NCCS)c1cc(-n2ccnn2)ccc1F`, 47.6%.
`O=C(CCS)NC1CC2(CCC2)C12CCC2` (stereo unspecified) showed a percent labeling of 39.3%.
The result for `O=C(NC1CCN(C(=O)CCS)CC1)C1CC1` reads 33.1%.
In turn, `Cc1cc(C)c(N2CC(C(=O)NCCS)CC2=O)c(C)c1` (stereo unspecified) registered a percent labeling of 50.4%.
`O=C(CCS)NCC1=CS(=O)(=O)c2ccccc21` returned a percent labeling of 36.7%.
For the compound `O=C(CCS)NC1CCN(CCc2ccccc2)CC1`, the percent labeling came to 51.5%.
The result for `O=C(CCc1cccc(Br)c1F)NCCS` reads 35.4%; that for `O=C(NCCS)C1(c2cccc(Cl)c2)CCCC1`, 28%.
The result for `CC(C)(C(=O)NCCS)c1csc(-c2c(F)cccc2F)n1` reads 24.6%.
Then `CN(CCCC(=O)NCCS)C(=O)c1ccncc1`, with 31.9%; and `O=C(NCCS)C1CCc2nc(C(F)(F)F)cn2C1` (stereo unspecified), with 33.9%; and `Cc1nc(-c2cccs2)sc1C(=O)NCCS`, with 29.2%.
For `O=C(CCS)NC1(c2nccs2)CCCC1`, the percent labeling worked out at 33.6%.
Then `O=C(CCS)Nc1cc(-c2ccccc2)nn1Cc1ccccc1`, with 19.9%; and `O=C(Cn1c(-c2ccccc2)cc2ccccc21)NCCS`, with 24%; and `Cc1nc2c(C(N)=O)ncn2c(C)c1CCC(=O)NCCS`, with 30.5%.
The result for `O=C(NCCS)c1cnc2ccccc2n1` reads 52.2%.
Then `O=C(Cn1c(-c2cccc(Cl)c2Cl)nc2ccccc21)NCCS`, with 31.9%; and `Cc1cc(NC(=O)CCS)cnc1NC(=O)c1cccc(O)c1`, with 44.7%; and `O=C(NCCS)c1nc(Br)cs1`, with 40.1%.
In the case of `Cc1nc(=O)[nH]c(C)c1CCC(=O)NCCS`, the percent labeling was 25.3%.
The result for `O=C(CCNC(=O)Cc1ccccc1)NCCS` reads 25.4%; that for `O=C(CCS)N1CCCCC1c1noc(=O)[nH]1` (stereo unspecified), 18.8%; that for `Cc1c(C(=O)NCCS)[nH]c(=O)c2ccccc12`, 29.4%.
Then `O=C(NCCS)C1CCN(S(=O)(=O)c2ccc(OC(F)(F)F)cc2Cl)CC1`, with 8.9%; and `O=C(NCCS)c1coc(-c2ccc(F)cc2)n1`, with 22.4%; and `Cc1csc(Nc2ccc(C(=O)NCCS)cc2)n1`, with 35.6%.
Then `CC(C)(C)OC(=O)C1CC(O)(C2CCN(C(=O)CCS)CC2)C1` (stereo unspecified), with 30.7%.
Take `O=C(NCCS)c1nsc2cc(Br)ccc12`: the percent labeling was found to be 22.9%.
Consider `O=C(NCCS)c1cnn(-c2cccc(Br)c2)c1`, for which the percent labeling amounted to 37.9%.
On to `O=C(NCCS)C1(c2cccs2)CCCCC1`, for which the percent labeling stood at 23.3%.
The result for `CC(C)(C)c1noc2ncc(C(=O)NCCS)cc12` reads 35.6%; that for `O=C(CCS)NCCC1CN(c2ncnc3[nH]ncc23)c2ccccc21` (stereo unspecified), 31.3%; that for `COc1ccc2[nH]c(C(=O)NCCS)cc2c1OC`, 27.9%.
Regarding `O=C(NCCS)c1cc(C2CC2)nc2onc(-c3ccccc3)c12`, the percent labeling amounted to 16.5%.
Turning to `COc1ccc(Br)cc1-c1nc(C(=O)NCCS)cs1`, the percent labeling is 39.4%.
In turn, `CC(C)(C(=O)NCCS)c1ccc(Cl)c(Cl)c1` came in with a percent labeling of 25.7%.
The result for `Cc1nc2sccn2c1C(=O)NCCS` reads 45.4%; that for `Cc1cc(CC(C)(C)C(=O)NCCS)ccc1Br`, 16.4%.
Consider `CC1CCN(c2cc(C(=O)NCCS)ccn2)C1` (stereo unspecified), for which the percent labeling was found to be 35.5%.
The result for `Cc1ncc(Cc2cccc(C(=O)NCCS)c2)s1` reads 48.7%; that for `O=C(NCCS)C1COc2ccc(O)cc2O1` (stereo unspecified), 40%; that for `O=C(CC1(N2CCOCC2)CCCC1)NCCS`, 19.9%.
The result for `O=C(CCS)Nc1ccc2nc(C(F)F)[nH]c2c1` reads 37.6%; that for `Cn1ccnc1[C@@H]1OCCC[C@H]1C(=O)NCCS`, 20.7%.
The result for `O=C(NCCS)C1(C(F)(F)F)CCOCC1` reads 38.3%; that for `CO[C@H]1CCN(Cc2nc(C(=O)NCCS)co2)C1`, 32.7%.
For `Cc1sc(NC(=O)CCS)nc1-c1ccc2c(c1)CCC(=O)N2`, the percent labeling amounted to 28.7%.
Regarding `Cc1nnc(CN(C)CC(=O)NCCS)n1C`, the percent labeling stood at 15.1%.
Then `O=C(CCS)NCc1nc(-c2nn[nH]n2)cs1`, with 24.5%; and `O=C(CCS)Nc1cnc2c(c1)COCC2`, with 36.6%; and `CC(C)Cn1ccc2c(C(=O)NCCS)cccc21`, with 25.7%.
Then `Cc1c(-c2ccc(Cl)cc2)n[nH]c1C(=O)NCCS`, with 16.5%; and `O=C(CCS)NCCn1cc(Br)ccc1=O`, with 39.8%.
The result for `CCOC(=O)C(NC(=O)CCS)c1c(C)nn(Cc2ccccc2)c1C` (stereo unspecified) reads 24.4%.
In turn, `O=C(CCS)NCC(=O)Nc1nccs1` came in with a percent labeling of 33.2%.
Then `CC(O)(Cn1ccc2sccc2c1=O)C(=O)NCCS` (stereo unspecified), with 41%; and `CC1(C)CCC(C(=O)NCCS)C(c2ccccc2)C1` (stereo unspecified), with 26.3%.
Then `O=C(NCCS)[C@@H]1OCCO[C@@H]1c1ccccc1`, with 27.4%; and `Cc1ccc2ncc(NC(=O)CCS)cc2c1`, with 29%.
Then `O=C(CCS)NCC1(c2cccc(C(F)(F)F)c2)CCC1`, with 32.3%.
With `O=C(CC1CCN(CC(F)F)CC1)NCCS`, the percent labeling is 28.2%.
Then `O=C(CCS)Nc1ccc(C(=O)O)cc1O`, with 21.2%.
The compound `Cc1cc2ncn(CC(O)CNC(=O)CCS)c2cc1C` (stereo unspecified) came in with a percent labeling of 42.3%.
The result for `CN1Cc2cc(C(=O)NCCS)ccc2NC1=O` reads 31%; that for `Cc1nc(Cl)ccc1CNC(=O)CCS`, 42.3%; that for `O=C(CCS)Nc1nnc(CC2CCCC2)s1`, 24.5%.
Compound `O=C(CCS)Nc1cccc2c1CN(c1ccccn1)C2` returned a percent labeling of 19.5%.
The result for `Cc1ncsc1C(=O)N1CCCN(C(=O)CCS)CC1` reads 38.8%; that for `COCCn1nnc2c1CCN(C(=O)CCS)C2`, 27.9%.
Then `CN1CC(C(=O)NCCS)c2ccccc2C1=O` (stereo unspecified), with 26%; and `NC(=O)C1CCN(c2ncccc2CNC(=O)CCS)CC1`, with 30.7%.
Take `O=C(CN1CCN(C(=O)CCS)CC1)Nc1ccccc1`: the percent labeling is 40%.
The result for `COC(=O)c1ccc(CN(C)C(=O)CCS)o1` reads 34%.
The compound `O=C(CN1CCC(C(F)(F)F)CC1)NCCS` gave a percent labeling of 40.9%.
`O=C(NCCS)C1=NN(c2ccc(S(=O)(=O)O)cc2)C(=O)C1` gave a percent labeling of 15.4%.
The result for `Cc1nc(CN2CCC(CNC(=O)CCS)CC2)cs1` reads 50.5%; that for `O=C(CCS)NCC(=O)Nc1ccc(F)cc1`, 26%.
On to `Cn1ccc(C(=O)NC2(C(=O)NCCS)CCCCCC2)cc1=O`, for which the percent labeling was found to be 28.4%.
The result for `O=C(CCS)Nc1cc2n(n1)CCCN(Cc1ccccc1)C2` reads 38.7%.
The result for `COc1ccc(C(=O)Nc2cc(F)ccc2C(=O)NCCS)cc1` reads 24.1%; that for `Cc1c(C(=O)NCCS)oc2c1ccc1ccccc12`, 22.5%; that for `C[C@H]1C[C@H](NC(=O)CCS)c2ccsc2S1(=O)=O`, 50.2%.
Turning to `O=C(CCS)N1CCN(Cc2ccncc2)CC1`, the percent labeling was found to be 28.4%.
The result for `O=C(NCCS)c1ncccc1-n1ncc2ccccc21` reads 36.6%; that for `CC(C)Cc1cc(C(=O)NCCS)cc(=O)[nH]1`, 45.5%; that for `CN1CCN(C(=O)CCS)c2cc(F)ccc21`, 28.6%.
`Cc1nc(CC(C)C)c(C(=O)NCCS)s1` had a percent labeling of 41.5%.
Then `O=C(CCS)NCc1ccncc1C(F)(F)F`, with 19.3%; and `O=C(CCS)N1CCC(Cc2nc(-c3ccc(F)cn3)no2)CC1`, with 36.6%; and `O=C(CCS)N1CCc2c([nH]c(=O)[nH]c2=O)C1`, with 41.6%.
Then `COc1ccc(C(=O)NCCS)c(OC)c1OC`, with 41.9%; and `CC(=O)N(C)Cc1ccccc1NC(=O)CCS`, with 28.3%; and `Cc1nn(Cc2ccccc2)c(C)c1NC(=O)CCS`, with 50.2%.
The result for `CN(C)c1cnc(CNC(=O)CCS)cn1` reads 30%; that for `O=C(CCS)N1CCC(C(O)c2ccc(F)cc2)CC1` (stereo unspecified), 48.3%; that for `O=C(NCCS)c1ccccc1OC1CCCC1`, 24.1%.
In the case of `Cc1nn(C2CCN(C(=O)CCS)CC2)c(=O)[nH]1`, the percent labeling came out at 35.1%.
The result for `O=C(NCCS)c1ccc(NC(=O)C2CC2)s1` reads 48.2%.
The result for `O=C(NCCS)c1cc2ccc(Br)cc2c(=O)o1` reads 17.2%; that for `CC(C)C(NC(=O)CCS)c1nnc2n1CCC2` (stereo unspecified), 31.3%.
Then `CN(C)CCOc1cccc(NC(=O)CCS)c1`, with 55.3%; and `O=C(CCS)Nc1cnn(COc2ccc(Cl)cc2)c1`, with 40.1%.
`O=C(CCS)Nc1ccc(NC(=O)c2ccco2)c(Cl)c1` returned a percent labeling of 37.3%.
Then `O=C(NCCS)C(c1cccc(F)c1)N1CCOCC1` (stereo unspecified), with 39.1%.
The result for `CCOc1cccnc1N1CCN(C(=O)CCS)CC1` reads 45.7%.
Consider `CC(NC(=O)C12CC3CC(CC(C3)C1)C2)C(=O)NCCS` (stereo unspecified), for which the percent labeling amounted to 31.9%.
The result for `O=C(CCS)N1CCN(c2nn3cc(-c4ccc(F)cc4)nc3s2)CC1` reads 7.9%; that for `Cc1nn(C)c(Oc2cccnc2)c1NC(=O)CCS`, 33.5%; that for `O=C(NCCS)C1CC(O)(c2cccc(Cl)c2)C1` (stereo unspecified), 47.2%.
The result for `Cn1cc(C(=O)NCCS)c(-c2ccc3c(c2)OCCCO3)n1` reads 41.2%; that for `Cc1cc(Br)cc2cc(C(=O)NCCS)oc12`, 28.6%; that for `O=C(Cc1csc(N2CCCC2=O)n1)NCCS`, 34.3%.
Then `O=C(CCS)N1CCC(c2ncc(-c3ccc(F)c(F)c3)[nH]2)CC1`, with 29.1%; and `COc1ccc2nc(C)c(C(=O)NCCS)n2n1`, with 54.1%; and `O=C(CCS)Nc1ccc(-c2n[nH]c3c2COCC3)cc1`, with 40.5%.
With `O=C(NCCS)C1CCN(S(=O)(=O)c2ccc3[nH]c(=O)sc3c2)CC1`, the percent labeling was 22.3%.
The result for `O=C(NCCS)c1ccnc2cc(Cl)ccc12` reads 41.3%; that for `O=C(CCS)N(CC(F)F)C1CCCCC1`, 32.1%; that for `CN(C(=O)c1cccc(C(=O)NCCS)c1)c1ccccc1`, 41%.
